Experimental data reported in publication PMC4336329 (PLoS ONE, 2015).
Screen size: about 310,000 compounds; about 2,200 (0.71%) showed an effect of 50% or more. Effects have a minus sign here. This is one part of the list.

Target: human ether-à-go-go-related gene (hERG) potassium channel (human, UniProt Q12809)
Test: primary screen, population patch clamp on CHO cells stably expressing hERG

Chain of human ether-à-go-go-related gene (hERG) potassium channel (Q12809 whole entry, looked up): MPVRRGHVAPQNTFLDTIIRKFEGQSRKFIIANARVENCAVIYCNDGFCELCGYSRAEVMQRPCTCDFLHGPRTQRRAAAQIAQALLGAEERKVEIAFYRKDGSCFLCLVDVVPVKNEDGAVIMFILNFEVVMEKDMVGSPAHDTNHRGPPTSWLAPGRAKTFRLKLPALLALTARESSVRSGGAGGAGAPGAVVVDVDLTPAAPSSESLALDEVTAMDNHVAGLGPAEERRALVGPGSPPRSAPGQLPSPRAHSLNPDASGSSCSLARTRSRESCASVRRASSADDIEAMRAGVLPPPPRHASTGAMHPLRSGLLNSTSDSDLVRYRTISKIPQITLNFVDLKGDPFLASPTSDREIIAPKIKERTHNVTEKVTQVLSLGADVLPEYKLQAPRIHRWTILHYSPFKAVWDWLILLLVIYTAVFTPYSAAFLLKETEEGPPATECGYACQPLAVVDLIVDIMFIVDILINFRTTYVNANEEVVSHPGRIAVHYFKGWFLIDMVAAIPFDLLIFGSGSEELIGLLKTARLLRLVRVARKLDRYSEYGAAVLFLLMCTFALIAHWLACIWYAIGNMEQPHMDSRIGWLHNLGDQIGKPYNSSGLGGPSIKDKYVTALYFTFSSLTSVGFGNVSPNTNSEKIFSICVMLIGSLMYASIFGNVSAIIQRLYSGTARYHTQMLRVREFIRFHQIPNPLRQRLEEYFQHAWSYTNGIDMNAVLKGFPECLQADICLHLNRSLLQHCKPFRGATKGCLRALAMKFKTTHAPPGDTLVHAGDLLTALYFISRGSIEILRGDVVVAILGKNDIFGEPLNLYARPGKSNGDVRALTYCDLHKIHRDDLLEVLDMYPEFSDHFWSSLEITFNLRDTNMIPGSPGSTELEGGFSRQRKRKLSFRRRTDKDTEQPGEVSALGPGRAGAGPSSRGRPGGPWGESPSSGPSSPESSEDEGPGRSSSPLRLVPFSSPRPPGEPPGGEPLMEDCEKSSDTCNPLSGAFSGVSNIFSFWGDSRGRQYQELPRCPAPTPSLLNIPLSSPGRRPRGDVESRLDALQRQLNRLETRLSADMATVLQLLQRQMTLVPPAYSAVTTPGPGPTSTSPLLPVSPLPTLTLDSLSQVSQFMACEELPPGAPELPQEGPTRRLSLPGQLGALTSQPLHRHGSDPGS

Row | Structure (SMILES) | hERG current change (%, negative = inhibition) at 1uM [%]
1 | COc1nccnc1NS(=O)(=O)c1ccc(NC(=O)c2cccc(C)c2)cc1 | 12.8
2 | Cc1ccc(NC(=O)CCc2ccc(S(=O)(=O)N3CCOCC3)cc2)c(C)c1 | 13.3
3 | COC(=O)c1c(NC(=O)CN2CCN(c3ncccn3)CC2)sc(C(N)=O)c1C | 3.71
4 | CN(c1ccccc1)S(=O)(=O)c1ccc2ccccc2c1 | 23.2
5 | COc1ccc(C(=O)c2c(-c3ccc(OC)cc3)oc3ccc(-c4cc(OC)c(OC)c(OC)c4)cc23)cc1 | 12.7
6 | CCCCOC(=O)N1CCOCCOCCN(C(=O)OCCCC)CCOCCOCC1 | -0.118
7 | Cc1cccc(C)c1OCC(=O)Nc1cc(Cl)ccc1-n1cncn1 | 6.91
8 | Cc1cccc(-n2ccnc2SCC(=O)Nc2nccs2)c1C | 7.8
9 | Cc1ccc(CNS(=O)(=O)NCc2ccc(Cl)cc2)cc1 | 10.1
10 | Clc1ccc(Cn2cc(Br)cn2)cc1Cl | 13.1
11 | Cc1n[nH]c(=O)n1-c1ccc(OC(F)(F)F)cc1 | 13.1
12 | Cn1cc(C(O)CN2CCCCC2)c2ccccc21 (centres unmarked) | 13.4
13 | CC(=O)NN1C(=O)c2ccccc2NC1c1ccccc1F (centres unmarked) | 13.9
14 | O=C(Nc1cc(=O)[nH]c(=O)[nH]1)c1cccc(C(F)(F)F)c1 | 6.88
15 | COc1cccc(C(=O)NNc2nc(C)cc(C)n2)c1 | 12.4
16 | O=c1c2c3c(sc2nc(NCCO)n1-c1ccccc1)CCCC3 | 19.7
17 | CCOC(=O)C1CCN(C(=O)Cc2ccccc2OC)CC1 | 16.1
18 | CCOC(=O)C1CCCN(S(=O)(=O)c2ccc(-c3cc(C)no3)s2)C1 (centres unmarked) | 0.636
19 | CCSC1=N/C(=C\c2cccc(F)c2)C(=O)S1 | 14.5
20 | Cc1ccc(C(=O)N2CCN(Cc3ccc4c(c3)OCO4)CC2)cc1C | -1.56
21 | CCOc1cccc(-n2nnnc2-c2ccc(OC)cc2)c1 | 7.98
22 | CN(C)CCCOC(=O)c1cc2ccccc2o1.Cl | 13
23 | O=C(Nc1cc(C(F)(F)F)ccc1N1CCOCC1)c1ccc(Br)o1 | 9.71
24 | Cc1ccc(S(=O)(=O)n2nc(C)c(C#N)c2N)cc1 | 7.85
25 | O=C(COc1ccc([N+](=O)[O-])cc1)NCCC1=CCCCC1 | -14.5
26 | O=P([O-])(CN1CCCCCC1)C1Cc2ccccc2C1 | 21.2
